# From the supplement of paper PMC3334620
# In all, about 33,000 sequences were measured (“E-score (-0.5 to 0.5)”: median about -0.012, highest 2% from about 0.29 on). Some of the results follow.
# Target: T1, Ybr033w (UniProt P38073)
# T1 sequence: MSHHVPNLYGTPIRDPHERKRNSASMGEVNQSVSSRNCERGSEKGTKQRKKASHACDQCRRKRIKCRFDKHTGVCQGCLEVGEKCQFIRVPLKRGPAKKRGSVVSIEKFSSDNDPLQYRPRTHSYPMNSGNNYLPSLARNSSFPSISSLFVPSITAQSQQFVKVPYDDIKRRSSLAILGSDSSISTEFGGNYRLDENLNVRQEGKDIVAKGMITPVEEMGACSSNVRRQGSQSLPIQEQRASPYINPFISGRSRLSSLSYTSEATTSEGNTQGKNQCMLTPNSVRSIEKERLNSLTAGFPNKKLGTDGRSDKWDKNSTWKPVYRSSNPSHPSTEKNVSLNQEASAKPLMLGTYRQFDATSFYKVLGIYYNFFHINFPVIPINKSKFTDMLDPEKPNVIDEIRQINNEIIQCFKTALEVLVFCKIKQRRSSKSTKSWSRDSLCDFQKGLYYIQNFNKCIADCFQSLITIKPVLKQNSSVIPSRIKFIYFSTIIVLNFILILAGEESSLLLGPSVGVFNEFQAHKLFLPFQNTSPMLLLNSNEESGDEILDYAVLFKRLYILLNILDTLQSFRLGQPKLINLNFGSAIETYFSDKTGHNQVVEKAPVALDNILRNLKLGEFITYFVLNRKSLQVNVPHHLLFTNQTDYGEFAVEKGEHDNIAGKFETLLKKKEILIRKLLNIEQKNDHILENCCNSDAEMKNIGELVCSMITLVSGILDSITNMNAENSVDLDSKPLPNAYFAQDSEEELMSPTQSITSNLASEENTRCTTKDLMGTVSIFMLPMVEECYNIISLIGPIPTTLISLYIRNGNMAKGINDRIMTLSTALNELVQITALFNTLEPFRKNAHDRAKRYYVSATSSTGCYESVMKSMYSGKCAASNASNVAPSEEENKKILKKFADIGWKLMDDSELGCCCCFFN
# Test: PBM E-score (8-mer binding enrichment) (E-score (-0.5 to 0.5)); higher = stronger / more preferred TF binding; most listed sequences are background and not binding sites
# Settings: protein concentration: 200 nM; construct: GST-full length
# Outline: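 Using PURExpress in vitro transcription/translation, GST-tagged yeast transcription factors were made in full-length or DNA-binding-domain form. These were applied at about 100-200 nM to double-stranded universal all-10-mer Agilent arrays, and bound protein was detected with fluorescent anti-GST. Scans were normalised with masliner before the Universal PBM Analysis Suite assigned E-scores to ungapped eight-base words pooled with their reverse complements.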
row,Sequence,PBM E-score
1,AATTAGAG,0.118
2,ACACAGAC,-0.0112
3,CGAGGGCG,-0.2
4,AGGTTAAA,0.193
5,ACCATATC,0.0412
6,ATATATGG,0.146
7,AGTCTAAG,0.182
8,CAGCTTGA,-0.118
9,ATTCTCAA,0.129
10,AGTACATA,0.199
11,GCAGTTCC,-0.013
12,ACTGTACC,-0.0666
13,CGTAATCC,0.00897
14,GAGAGACA,-0.0705
15,AGCCGCAG,-0.229
16,AGATAAGG,-0.0552
17,TAGTGACA,0.191
18,GGTAGCTA,-0.185
19,ACAAGCCT,-0.0261
20,AGGTATAT,0.128
21,GTCTGCAA,-0.192
22,AGCGACCC,-0.165
23,ATTGTCAG,0.0363
24,AGGGGATC,-0.158
25,CTATTGAA,0.235

row,Sequence,PBM E-score
1,ATATTCTG,0.157
2,CCAGCTCG,-0.167
3,TCATACAA,0.163
4,CACTGGCA,-0.0531
5,CGGAGGCC,-0.33
6,CTTACGCA,-0.031
7,AATACGTC,0.0808
8,CTAAGGTA,0.043
9,ATTAGCGA,0.0773
10,ATTACATC,0.266
11,ACTTGTCC,0.0494
12,GACAAAAC,0.144
13,ATTTATGC,0.197
14,CTAAGGAC,-0.11
15,TTAAGTAA,0.287
16,AGGCGTCA,-0.223
17,AGTGTATG,0.00317
18,CAGGTTCG,-0.0708
19,AGACTACA,-0.18
20,AATCGTCT,0.0574
21,ACGCTTAG,-0.0441
22,ATTCCGAG,0.242
23,AAGCATTC,0.0632
24,CGGGGACC,-0.0869
25,ACAGGTGC,-0.0483

row,Sequence,PBM E-score
1,ACGTAGTA,0.0289
2,ACGGGCGA,-0.208
3,AGTGCCAG,-0.131
4,ACTGATGG,-0.236
5,CCGGTACA,-0.139
6,CAACAGCC,-0.00498
7,CACGAAGA,0.0846
8,ATGTCATC,-0.133
9,CAGACTCG,-0.0866
10,ATCTAGCC,-0.0426
11,ACATTGAA,0.155
12,GGGGCGCA,-0.268
13,ACACGCTC,-0.0172
14,ATTAGCTC,0.117
15,CCGCACCG,-0.192
16,ATAACCTA,0.03
17,CTTGCCGA,-0.0582
18,ACCTCAGC,-0.131
19,ACCGTGAA,-0.0312
20,AGCCTACA,-0.0683
21,AGGGCATG,-0.144
22,CACTCGCC,-0.0171
23,GGGCCTGA,-0.295
24,CGTACAGA,-0.0561
25,GACGAATA,0.163

row,Sequence,PBM E-score
1,AAGGAATG,0.151
2,AATATGAG,0.245
3,ATCTTCAA,0.136
4,AAATTATT,0.417
5,CCCGAATA,0.121
6,AAGTAGAC,-0.0111
7,CCAATTGC,-0.166
8,GGGCTTGA,-0.229
9,ACACAGGG,-0.191
10,AACCTGAA,-0.128
11,CATGGCAA,-0.048
12,TGCTGTAA,0.154
13,CCAACTAG,0.0822
14,TTCAACAA,0.16
15,GCCGAACA,0.0493
16,ACAGCTAG,-0.105
17,ATCCACTG,0.0913
18,TAGCGGAA,0.0655
19,ATATGGAT,0.138
20,ACCTTGCT,-0.127
21,CGGCACGC,-0.227
22,GGGGATCA,-0.21
23,AAAGTCCC,-0.0998
24,ACTTCGGG,-0.0396
25,CAAAGCAC,-0.0109

row,Sequence,PBM E-score
1,CTGTCTTC,0.0214
2,GATAGAGC,0.00911
3,TGCCAAAA,0.0578
4,ACTTTACG,0.132
5,AAAGTTCA,0.157
6,GTATTAAC,0.0593
7,CGTGGGAA,-0.128
8,ATTTTGAA,0.175
9,GACTCAAC,-0.0389
10,CTTGCATA,0.106
11,AGCAGATA,0.0418
12,GATACAAC,0.0648
13,ATTTACGG,0.166
14,CCACTAAC,-0.013
15,TGCATGAA,0.165
16,CACCGTCG,-0.0934
17,ATTTAGCC,0.117
18,CCATTTAC,0.207
19,ACCACTAT,0.111
20,AAAGAGGT,0.0471
21,ACCCAGCG,-0.255
22,ACTGAGGA,0.00029
23,AAGGGATT,0.0557
24,AGGCCGAA,-0.117
25,GACATTAC,0.164

row,Sequence,PBM E-score
1,ATGATGAA,0.192
2,CACATCCC,-0.0423
3,GGCGATAA,-0.0929
4,CATAGTGG,0.0351
5,AGAAGCAG,-0.0975
6,GACGAGGA,-0.0297
7,ACAAGGTG,0.0226
8,AGCCGTGG,-0.15
9,CTCTGGTA,0.125
10,AGATCGTC,-0.149
11,ACCAACTG,-0.0123
12,TATCGCGA,0.132
13,CCTTGGGA,0.021
14,ACTTACCA,0.0956
15,AGTCGAGG,-0.128
16,TAATAGAA,0.198
17,ACCCCGAC,-0.383
18,CGGGCTAA,-0.196
19,AAAGTCCA,0.0646
20,GAACGAAC,0.117
21,ACTATCCT,0.125
22,AGGGCTAG,-0.15
23,AATCCCTA,0.0935
24,AGCCTGGA,-0.199
25,AGACAGAC,0.151

row,Sequence,PBM E-score
1,AGGGTCAG,-0.226
2,CTCAACTA,0.0837
3,GTAGACTA,-0.131
4,ATATAGAA,0.169
5,GTCCAGAA,-0.051
6,GAGATGGC,0.00969
7,CACTTTCG,0.0443
8,CACAGTTC,0.103
9,AGGTGGGG,-0.0216
10,GTCCCTGA,-0.196
11,CATAGCGA,-0.0889
12,CGTCACCC,-0.215
13,AAAATGGC,0.0583
14,CCGGCAAC,-0.195
15,CAAGTAGA,-0.00549
16,AGGGACGA,-0.16
17,TCTTACCA,0.0684
18,TGCATTAA,0.256
19,CTAGGAAA,0.0651
20,CCTTATGC,0.0726
21,GAGCTATC,-0.109
22,CCGTCCCG,-0.13
